Results taken from PubChem BioAssay AID624417 (National Center for Advancing Translational Sciences (NCATS), 2012).
The campaign covered roughly 410,000 compounds. About 6,400 (1.6%) were called active. The shares of active, inactive and inconclusive entries below differ from those in the screen. Calls follow the shape of the dose curve; as a rule, active = well fitted inhibition curve with a large enough effect; inconclusive = small, poorly fitted or top-dose-only effect; inactive = no such curve, though single readings can be large or run the other way. No potency is given beside an inconclusive call; the fits are too rough.
% is scaled to controls: 0 for no effect and ±100 for the full control effect; potency is read from the fitted curve at half-maximal effect; tags tell the direction and shape of the fitted curve.
Also: nearly all actives have a fitted effect of over 55% in size.

The compounds below were run against Glucagon-like peptide 1 receptor (Homo sapiens) (UniProt P43220) (assay: qHTS of GLP-1 Receptor Inverse Agonists (Inhibition Mode)). Conditions: HEK293 GLP-1R CRE-luciferase, luminescence, 24 h, GLP-1R form is constitutively active; activity change, negative = inhibition: at 38.3 µM (top of the series) unless noted.
UniProt P43220, sequence (P43220 whole entry, looked up): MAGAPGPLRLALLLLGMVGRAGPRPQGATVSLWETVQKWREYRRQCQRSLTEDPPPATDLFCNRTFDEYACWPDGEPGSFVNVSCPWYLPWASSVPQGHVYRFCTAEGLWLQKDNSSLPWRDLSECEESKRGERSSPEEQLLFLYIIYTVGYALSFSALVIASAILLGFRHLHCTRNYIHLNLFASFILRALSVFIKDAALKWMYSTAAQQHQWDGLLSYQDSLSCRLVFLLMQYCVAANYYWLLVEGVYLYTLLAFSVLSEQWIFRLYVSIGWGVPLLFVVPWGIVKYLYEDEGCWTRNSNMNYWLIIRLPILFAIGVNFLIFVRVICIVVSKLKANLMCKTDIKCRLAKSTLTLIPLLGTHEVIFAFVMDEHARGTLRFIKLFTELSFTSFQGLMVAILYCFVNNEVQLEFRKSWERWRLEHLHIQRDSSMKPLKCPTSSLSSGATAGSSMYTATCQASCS
Method in brief: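 HEK293 cells stably co-expressing a cAMP-responsive luciferase reporter and constitutively active GLP-1R were seeded, incubated 12 h, then exposed to compounds for 24 h at 37 C. Luminescence was read 12 min after detection reagent; inverse agonists lower signal.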
O=C1C(=O)N(c2nccs2)C(c2ccccc2F)/C1=C(\O)c1ccc2c(c1)OCCO2 (stereo unspecified) was tested, and the Potency was inconclusive [inhibitor, full curve, poor fit].
With CC(C)C(=O)N1c2ncnn2C2(CCCCC2)[C@@H]2CCCC[C@@H]21 the Potency was inconclusive [inhibitor, single point].
With CCN1C(=O)/C(=C/N(C(C)=O)c2ccccc2)N(c2ccccc2)C1=S the Potency was inconclusive [inhibitor, partial curve, poor fit].
For COc1ccc(NC(=O)C2CCCNC2)cc1OCC(C)C (stereo unspecified), the Potency was inconclusive [inhibitor, partial curve, poor fit].
Cc1ccc(Cl)cc1NS(=O)(=O)Cc1ccccc1 was tested, and the Potency was inconclusive [inhibitor, partial curve, poor fit].
With COc1ccc(C(=O)CSc2nc(-c3ccccn3)nc(C)c2Cl)cc1 the Potency was inconclusive [inhibitor, partial curve, poor fit].
For COc1ccc(C2CC(=O)N(Cc3ccc(F)cc3)c3ccccc3S2)cc1 (stereo unspecified), the Potency was inconclusive [inhibitor, single point].
CCCCOCCCNC(=O)C[C@@H]1C[C@@]2(C(=O)OCC)CCCC=C2N(Cc2ccc3c(c2)OCO3)C1=O was tested, and the Potency was inconclusive [inhibitor, single point].
In the case of Cc1ccc(NC(=O)c2cc(S(=O)(=O)NCCc3ccccc3)ccc2F)cc1Cl, the Potency is reported as inconclusive [inhibitor, single point].
With CCOC(=O)Cc1csc(NC(=O)Nc2cccc(Cl)c2)n1 the Potency was inconclusive [inhibitor, partial curve, poor fit].
With CCN1CCN(c2oc(-c3ccc(COc4ccc(C)cc4)o3)nc2C#N)CC1 the Potency was inconclusive [inhibitor, single point].
O=C(NNC(=S)NCc1ccccc1)c1cccc([N+](=O)[O-])c1 was tested, and the Potency was inconclusive [inhibitor, single point].
For CCCCNC(=O)c1ccc2c(c1)NC(=O)C(CS(=O)(=O)Cc1cccc(C)c1)N2 (stereo unspecified), the “activity change, negative = inhibition” value was inactive: 8.28%.
CCN(CC)CCCNC(=O)c1oc2ccc3c(c2c1C)C(O)CC(C)(C)O3 (stereo unspecified) was tested, and the Potency was inconclusive [inhibitor, single point].
CCOC(=O)C1=C(C)Nc2ccccc2N=C1NC(=O)c1ccc(Cl)c(S(=O)(=O)N2CCCC2)c1 was tested, and the Potency was inconclusive [inhibitor, single point].
With O=C1CC(c2ccccc2Oc2cccc(Cl)c2)C(n2cncn2)C(=O)C1C1NCCc2ccccc21 (stereo unspecified) the Potency was inconclusive [inhibitor, partial curve, poor fit].
In the case of CCN(C(=O)c1cccc(Br)c1)c1ccccc1, the Potency is reported as inconclusive [inhibitor, partial curve, poor fit].
CCC(=O)Nc1nc(CC(=O)Nc2ccccc2OC)cs1 was tested, and the “activity change, negative = inhibition” value was inactive: 19.3%.
In the case of Cc1cc(C)nc(/N=C(\N)Nc2ccc(CC(=O)OC(C)C)cc2)n1, the Potency is reported as inconclusive [inhibitor, partial curve, poor fit].
O=Cc1cn(CC(=O)N2CCCc3ccccc32)c2ccccc12 was tested, and the Potency was inconclusive [inhibitor, single point].
With COc1cccc2sc(N(Cc3cccnc3)C(=O)Cc3ccccc3)nc12 the Potency was inconclusive [inhibitor, partial curve, poor fit].
For O=C(NC(=S)NC1CCN(Cc2ccccc2)CC1)c1ccc(F)cc1, the Potency was inconclusive [inhibitor, partial curve, poor fit].
In the case of CC(C)=CCc1ccc(O)c(=O)cc1C(C)C, the Potency is reported as inconclusive [inhibitor, full curve, poor fit].
With CCOc1cc(CNCCSc2nnnn2C)cc(Br)c1OCc1ccccc1 the Potency was active: 5.62 µM.
In the case of Cc1ccc(S(=O)(=O)C2(C(=O)NCc3ccccc3Cl)CC2)cc1, the Potency is reported as inconclusive [inhibitor, single point].
For COc1ccc(C(=O)N=c2nc3ccccn3s2)cc1, the Potency was inconclusive [inhibitor, partial curve, poor fit].
For CN(C)CCCN(C(=O)c1cccs1)c1nc(-c2ccccc2)cs1, the “activity change, negative = inhibition” value was inactive: 0%.
In the case of N/C(=N\OC(=O)COc1ccc(Cl)cc1Cl)c1cccnc1, the “activity change, negative = inhibition” value is reported as inactive: 12.2%.
With COc1cc2nc(/C=C/c3cc(OC)c(OC)c(OC)c3)sc2cc1SC the Potency was inconclusive [inhibitor, partial curve].
With COc1ccc(-c2ccc(C(=O)Nc3ccc(NC(C)=O)cc3)c3occc23)c(C)c1 the Potency was inconclusive [inhibitor, partial curve, poor fit].
In the case of COC(=O)c1cccc(NC(=O)CCSc2ccc(Cl)cc2)c1C, the Potency is reported as inconclusive [inhibitor, partial curve, poor fit].
In the case of Cn1c(C(=O)NCc2ccccc2F)cc2oc3ccccc3c21, the Potency is reported as inconclusive [inhibitor, full curve, poor fit].
For Cc1cccc(C)c1NS(=O)(=O)c1ccc(F)cc1, the Potency was inconclusive [inhibitor, single point].
CCCn1c(SCc2ccc(C(=O)OC)o2)nc2ccccc2c1=O was tested, and the Potency was inconclusive [inhibitor, single point].
With C=CCN1C(=O)C(Cc2ccc(C)cc2)S/C1=N/N=C/c1ccco1 (stereo unspecified) the Potency was inconclusive [inhibitor, single point].
With CN1C(=O)N(CC(=O)N2CCN(S(=O)(=O)Cc3ccccc3)CC2)C(=O)C12CCCCC2 the “activity change, negative = inhibition” value was inactive: 1.05%.
In the case of CC1(C(=O)NS(=O)(=O)c2ccccc2Cl)CCN1C(=O)CCc1ccc(Cl)cc1Cl (stereo unspecified), the Potency is reported as inconclusive [inhibitor, single point].
For CC(C1SC(=S)NC1=O)C1SC(=S)NC1=O (stereo unspecified), the “activity change, negative = inhibition” value was inactive: -8.67%.
With COc1ccc(NS(=O)(=O)c2ccc(C)c(C(=O)O)c2)cc1 the “activity change, negative = inhibition” value was inactive: 4.85%.
In the case of O=C(NCc1ccccn1)c1cccc(S(=O)(=O)Nc2ccccc2Cl)c1, the “activity change, negative = inhibition” value is reported as inactive: -6.79%.
With Cc1cc(C)c(S(C)(=O)=O)c(Oc2cccc(Cl)c2)n1 the “activity change, negative = inhibition” value was inactive: 4.77%.
